Results as given in PMC4336329 (PLoS ONE, 2015).
Hit rate of the full screen: of about 310,000 compounds, about 2,200 (0.71%) showed an effect of 50% or more. Effects have a minus sign here. This is one part of the list.

molecular target: human ether-à-go-go-related gene (hERG) potassium channel (human, UniProt Q12809); assay: primary screen, population patch clamp on CHO cells stably expressing hERG
Sequence (Q12809 whole entry, looked up): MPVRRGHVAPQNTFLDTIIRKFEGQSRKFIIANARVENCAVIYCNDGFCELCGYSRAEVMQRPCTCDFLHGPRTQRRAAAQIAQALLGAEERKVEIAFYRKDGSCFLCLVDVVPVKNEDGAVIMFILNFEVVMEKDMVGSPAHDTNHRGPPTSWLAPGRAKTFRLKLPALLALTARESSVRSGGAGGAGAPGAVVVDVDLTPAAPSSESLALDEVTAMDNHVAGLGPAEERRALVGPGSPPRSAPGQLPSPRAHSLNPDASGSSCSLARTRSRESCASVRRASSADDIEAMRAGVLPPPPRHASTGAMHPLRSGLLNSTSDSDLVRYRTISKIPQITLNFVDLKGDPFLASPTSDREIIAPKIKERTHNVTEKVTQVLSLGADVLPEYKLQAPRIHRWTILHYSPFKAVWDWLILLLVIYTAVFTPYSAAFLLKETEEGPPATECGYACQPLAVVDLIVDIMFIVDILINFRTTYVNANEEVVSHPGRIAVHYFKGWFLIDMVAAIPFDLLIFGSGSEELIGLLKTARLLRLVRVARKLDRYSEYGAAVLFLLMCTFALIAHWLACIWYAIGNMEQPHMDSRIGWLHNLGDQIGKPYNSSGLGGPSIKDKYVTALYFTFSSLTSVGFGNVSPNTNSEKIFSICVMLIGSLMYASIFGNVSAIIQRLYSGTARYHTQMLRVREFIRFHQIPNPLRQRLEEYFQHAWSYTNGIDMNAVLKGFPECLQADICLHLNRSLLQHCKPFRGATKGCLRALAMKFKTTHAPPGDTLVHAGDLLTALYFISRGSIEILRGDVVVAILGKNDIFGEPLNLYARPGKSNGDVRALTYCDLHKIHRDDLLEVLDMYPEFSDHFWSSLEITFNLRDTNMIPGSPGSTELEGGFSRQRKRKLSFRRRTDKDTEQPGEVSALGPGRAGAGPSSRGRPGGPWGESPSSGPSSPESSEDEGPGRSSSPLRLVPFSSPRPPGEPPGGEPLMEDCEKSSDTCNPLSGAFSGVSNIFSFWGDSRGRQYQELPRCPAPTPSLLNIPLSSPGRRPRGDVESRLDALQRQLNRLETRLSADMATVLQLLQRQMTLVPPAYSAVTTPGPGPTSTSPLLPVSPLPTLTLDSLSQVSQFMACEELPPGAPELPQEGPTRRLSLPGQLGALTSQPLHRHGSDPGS

Compound | hERG current change (%, negative = inhibition) at 1uM [%]
CCCCN(CCCC)c1nc2ccccc2nc1NS(=O)(=O)c1ccc(NC(C)=O)cc1 | 11.8
COc1ccc(S(=O)(=O)N2CCN(C(=O)[C@H](Cc3ccccc3)NC(=O)c3ccco3)CC2)cc1 | -1.26
O=C(CSCc1ccc(Cl)cc1Cl)Nc1nccs1 | 9.06
COc1nnc(-c2ccc(C)c(S(=O)(=O)NC(C)(C)CO)c2)c2ccccc12 | 10.4
Cc1ccccc1-n1nnnc1SCc1cc(=O)n2ccsc2n1 | -1.61
CCOC(=O)c1sc(Nc2ccccc2)nc1C | 9.33
CCOc1ccc(C(=O)NNC2CC(=O)N(Cc3ccc(Cl)cc3)C2=O)cc1OC (centres unmarked) | 5.78
CCOC(=O)C1=C(N)OC(CCl)=C(C#N)C1c1ccsc1 (centres unmarked) | 8.31
O=C(CSc1nnnn1-c1ccc2c(c1)OCCO2)N1CCc2ccccc21 | 9.11
Cl.c1ccc(CCNCc2cccnc2)cc1 | 6.78
CC(C)(C)[C@H]1C=C(C(=O)N2CCN(Cc3ccccc3)CC2)O[C@@H](OCc2ccc(CO)cc2)C1 | 3.52
COc1ccc(NC(=O)CC2CC3CCC2C3)cn1 (centres unmarked) | 16.4
CN(C)S(=O)(=O)c1cccc(NC(=O)CCNC(=O)c2ccccc2Cl)c1 | 4.35
COc1cc(/C=C2/SC(=Nc3ccc(O)cc3)NC2=O)ccc1O | 11.9
Cc1ccc(CNC(=O)CN2C(=O)C3(OCCCO3)c3ccccc32)cc1 | -0.442
CCOC(=O)c1cnc(SC2CCc3ccccc3C2=O)nc1N (centres unmarked) | 1.07
COCc1cc(C)nc(Nc2ccc(C)cc2C)c1C#N | 10.4
O=C(OCC(=O)N1CCCC1=O)c1cccc([N+](=O)[O-])c1 | 18.1
COc1ccc(-c2c(C#Cc3ccsc3)c3cc(-c4ccc(OC)c(F)c4)ccc3n2C)cc1 | 17.4

Compound | hERG current change (%, negative = inhibition) at 1uM [%]
O=C(CSc1cccc[n+]1[O-])Nc1ccc2c(c1)OCCO2 | 7.82
CNc1nc(C)c(C(=O)c2ccc(Cl)cc2)s1 | 5.39
COC(=O)CC1=C(C(=O)OC)[C@@H](c2ccccc2[N+](=O)[O-])C(C#N)=C(N)O1 | 20.8
O=C(/C=C/c1ccccc1)N/C(=C\c1ccco1)C(=O)NCCO | -8.29
CC(C)(C)NC(=S)NCc1cccnc1 | -0.441
O=C(N/N=C/c1cc([N+](=O)[O-])ccc1O)c1cccc(N2CCCC2=O)c1 | -8.98
COc1cc(/C=N/N2CCN(Cc3ccc(C)cc3)CC2)cc(OC)c1O | 12.5
CCOc1ccc(S(=O)(=O)n2nc(C)c(S(=O)(=O)N3CCOCC3)c2C)cc1 | 17.5
COc1ccc(-c2oc(NC(=O)CCl)c(C#N)c2-c2ccc(OC)cc2)cc1 | 5.46
O=C(Nc1nnc(C2CC2)s1)c1n[nH]c(=O)c2ccccc12 | 6.56
CCc1ccc(C(=O)NNC(=O)Cn2c(=O)cnc3ccccc32)cc1 | 2.28
COc1ccc(CCNC(=O)C2CCCN(S(=O)(=O)N3CCCCCC3)C2)cc1OC (centres unmarked) | 8.92
CCn1c(=O)c(C(=O)NNS(=O)(=O)c2ccc(NC(=O)OC)cc2)c(O)c2ccccc21 | -24.2
COCc1ccc([C@@H]2C[C@H]3CN(Cc4ccccc4C)C(=O)[C@]34CCCN24)o1 | -1.73
CCN1CCN(c2ccc(S(=O)(=O)N(CC)CC)cc2[N+](=O)[O-])CC1 | 1.33
O=C(NCC1CCCO1)/C(=C\c1ccc(Cl)cc1)NC(=O)c1ccccc1 (centres unmarked) | 6.43
Cc1cc(NS(=O)(=O)c2ccc3c(c2)OCCO3)no1 | 11.7
CC(C)Cc1nc2sc3c(c2c(=O)n1N)CC(C(C)C)OC3 (centres unmarked) | 18.6
COc1ccc2nc(Cl)cc(Cl)c2c1 | 16.7

Compound | hERG current change (%, negative = inhibition) at 1uM [%]
COc1ccc([N+](=O)[O-])cc1N(CC1CO1)S(=O)(=O)c1ccc(C)cc1 (centres unmarked) | 18.1
Cc1nc(Cl)cc(N/N=C/c2ccc(O)cc2O)n1 | 3.56
O=C(NCCCc1nc2ccccc2[nH]1)c1cccs1 | 5.78
COc1ccc(NC(C)=O)cc1NC(=O)c1ccc2ccccc2c1 | -0.0088
O=[N+]([O-])c1cc(S(=O)(=O)N2CCCC2)ccc1N/N=C/c1ccncc1 | 3.07
CCCn1c2ccccc2c2nnc(SCC(=O)Nc3cc(C)on3)nc21 | 1.24
Cc1c(C(=O)OCC(=O)N2CCCCC2C)oc2ccccc12 (centres unmarked) | 19.1
Cc1ccc(N2C(=O)CCC(C(=O)O)C2c2cccs2)cc1 (centres unmarked) | 22.5
CCOC(=O)N1CCC(N2CCN(Cc3ccccc3)C(CCO)C2)CC1 (centres unmarked) | 16.2
CCS(=O)(=O)CCSc1nc(C)cc(C)n1 | 10.4
CN(C)CCNC(=O)COc1ccc(C23CC4CC(CC(C4)C2)C3)cc1.Cl | 2.63
Cc1cc(C)n(CC(O)COc2ccccc2C)n1 (centres unmarked) | -6.57
O=C1CSC(c2cccc(F)c2)N1c1ccccc1 (centres unmarked) | 13.4
CCN(CC)C(=O)N1CCc2ccccc2C1CN1C(=O)c2ccccc2C1=O (centres unmarked) | 5.4
Cc1ccc(-c2nc3cccnc3s2)cc1NS(=O)(=O)c1ccc2c(c1)CCCC2 | 0.773
COc1ccc(Br)cc1/C=C/C(=O)NC(=S)Nc1ccc(Cl)c(C(=O)O)c1 | 17.7
CCOC(=O)c1cc(=O)n2[nH]c(-c3ccc(C)cc3)cc2n1 | 5.63
COc1ccccc1N1CCN(C(=O)c2cc3cc(F)ccc3[nH]2)CC1 | 15.6
